# Over roughly 33,000 sequences, “E-score (-0.5 to 0.5)” has its median near -0.054; the highest 2% begin near 0.35. The list shows a part of the results.
# Biological target: T1, Stb5 (UniProt P38699)
# T1 sequence: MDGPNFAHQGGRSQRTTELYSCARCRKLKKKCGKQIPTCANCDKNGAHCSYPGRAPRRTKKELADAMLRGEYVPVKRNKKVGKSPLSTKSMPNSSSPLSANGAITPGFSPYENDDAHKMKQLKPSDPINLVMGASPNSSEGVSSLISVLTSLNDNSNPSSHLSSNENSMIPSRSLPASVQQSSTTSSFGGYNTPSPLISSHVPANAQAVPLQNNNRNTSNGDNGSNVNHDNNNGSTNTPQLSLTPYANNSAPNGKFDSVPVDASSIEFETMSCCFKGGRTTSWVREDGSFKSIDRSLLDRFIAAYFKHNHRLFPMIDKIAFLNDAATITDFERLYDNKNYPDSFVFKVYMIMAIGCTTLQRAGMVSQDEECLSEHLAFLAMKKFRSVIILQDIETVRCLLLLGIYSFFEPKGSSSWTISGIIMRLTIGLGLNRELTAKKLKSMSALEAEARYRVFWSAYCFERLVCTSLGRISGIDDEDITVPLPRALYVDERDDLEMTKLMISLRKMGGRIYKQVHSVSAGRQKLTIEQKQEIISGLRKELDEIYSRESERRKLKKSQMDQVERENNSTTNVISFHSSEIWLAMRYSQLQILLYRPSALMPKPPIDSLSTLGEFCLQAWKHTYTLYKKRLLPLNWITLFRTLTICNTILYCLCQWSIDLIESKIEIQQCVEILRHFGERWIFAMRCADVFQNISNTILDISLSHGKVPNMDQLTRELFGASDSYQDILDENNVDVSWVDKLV
# Assay: PBM E-score (8-mer binding enrichment) (E-score (-0.5 to 0.5)); higher = stronger / more preferred TF binding; most listed sequences are background and not binding sites
# Conditions: protein concentration: 200 nM; construct: GST-full length
# Procedure, shortened: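 Yeast transcription factors, full-length or as DNA-binding domains, were expressed with a GST tag using PURExpress in vitro transcription/translation. At about 100-200 nM they were applied to universal all-10-mer Agilent arrays, double-stranded by primer extension on fresh or once-stripped slides. Fluorescent anti-GST detected bound protein, and masliner normalised the scans. E-scores for ungapped eight-base words, pooled with reverse complements, came from the Universal PBM Analysis Suite.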
row,Sequence,PBM E-score
1,GTGCTACA,-0.0525
2,CATCTGCA,-0.164
3,GGATCCCC,0.165
4,CTTGGCCC,0.0302
5,AGCTTGTG,-0.264
6,GTTGCCCA,-0.0197
7,AGGATGAG,-0.289
8,ATTTAGCA,-0.104
9,TAGCAGAA,-0.165
10,TTCGAAAA,-0.112
11,CCTCTGGC,-0.0454
12,AGGGAGAC,-0.0822
13,ACGTGGAA,-0.111
14,AAGTAGTA,-0.15
15,ATACTCCC,0.339
16,ACCAAGAA,-0.104
17,CGCGAATC,-0.0438
18,AACACTGA,-0.293
19,GCAGAGCC,-0.159
20,CTATTGCC,0.281
21,GGGCTAAC,-0.0393
22,AACTCATC,-0.116
23,CGGCGTGC,0.109
24,AGAATCAA,-0.063
25,CCGTTCAA,0.264

row,Sequence,PBM E-score
1,AACGGAAG,0.00045
2,GTAATCCA,0.0117
3,CACGCTAG,-0.259
4,ACTCCATG,-0.0336
5,CCGAAACC,0.144
6,GTCATCAC,-0.147
7,AATATTAG,-0.137
8,GCCTCTCC,-0.285
9,GAACACAA,-0.31
10,ATCGCGCA,-0.213
11,AAGCCATC,-0.12
12,ATGCTGAA,-0.185
13,CAGCCGAC,0.146
14,ATTAGTTA,0.0189
15,CACGTCCA,-0.128
16,AGACCTGA,-0.123
17,TCCTTAGA,-0.114
18,AGACTATC,-0.205
19,ATTCAGTG,0.00016
20,TAGGGAGA,-0.107
21,AGGCGTGC,-0.128
22,AGCGCACG,0.0995
23,ACAGTAGG,-0.225
24,CGTCAGTA,-0.101
25,AAAACGAG,-0.18

row,Sequence,PBM E-score
1,CCGGCGAG,0.154
2,GAGGGAGC,-0.255
3,AGGTTTAA,-0.147
4,TGATATAA,0.0825
5,ATCCCCTG,0.0213
6,ACTGCTTG,-0.185
7,ACTACAGA,-0.0118
8,CTTCATAA,-0.00453
9,AATACCGC,0.454
10,CCACTAGG,-0.166
11,CATTGACC,0.0053
12,GGGTCCTA,-0.127
13,ACTTCCAT,-0.108
14,GGTCGCAC,0.237
15,CGACAACA,-0.0433
16,ATTTTCCA,-0.128
17,GCTGTGCC,-0.0383
18,CCAATAAG,-0.162
19,GAGCTACC,-0.0323
20,GAGAAGCC,0.0161
21,TGCCCGAA,-0.00042
22,GTATCCGA,0.0664
23,GAAGTCGC,-0.0322
24,CCACGGAA,0.128
25,ACGCCTTA,-0.0391

row,Sequence,PBM E-score
1,GGTATCGA,0.00137
2,CTAATGCC,0.285
3,ACCTCACG,0.0237
4,AGAGGATG,-0.0895
5,AACACAGG,-0.165
6,CGTGAACC,0.0987
7,CTTCGGTA,0.178
8,AGTTCGAA,0.0585
9,CACTGACC,0.00405
10,GTAACAAA,0.0447
11,CTCTCAAC,-0.102
12,GCCTCTTA,-0.172
13,AGGCTAAG,-0.0956
14,CGATTACC,0.178
15,CTTCGCTA,-0.183
16,AGACAAAT,-0.128
17,TCAGAGAA,-0.252
18,CATATAAG,-0.0781
19,ACCGTATC,0.262
20,CCTTTAAA,-0.0266
21,ACGTAAAA,-0.0505
22,GCGACGAA,-0.0446
23,AAGCAATG,-0.183
24,TAAGGCTA,-0.187
25,AAGAGATT,0.00068

row,Sequence,PBM E-score
1,ACCTTACA,-0.0752
2,CCGCACGC,0.0937
3,CCCTTGTC,-0.0955
4,ATAGTGCC,0.336
5,GGAGATAA,0.348
6,GGACGGTA,0.241
7,AGGACGAT,-0.296
8,CGCGCATA,0.112
9,AGGAACCG,0.0514
10,CACGCGAC,-0.0769
11,ATCGGAAT,0.15
12,GCCTGTCA,-0.152
13,CCTCTGGA,-0.0749
14,ACATAAGG,0.124
15,CCGTTCGC,0.194
16,AACTGACG,-0.0736
17,ACACCCTA,-0.276
18,AAGCAACC,0.0322
19,CCGCAGCC,0.17
20,AGTTGAAG,-0.196
21,CACATAAC,-0.0228
22,AACACATC,-0.258
23,GGTTACTA,0.0175
24,AGAGCGCT,-0.00185
25,ATCCGACG,0.263

row,Sequence,PBM E-score
1,GCATGTGA,-0.168
2,GTCGCATA,-0.0299
3,GACATGCA,-0.131
4,ATGGGTCG,0.019
5,CGACAGCA,0.11
6,CGACCTTC,0.159
7,AGGCCTTC,-0.101
8,ACCTGAGT,-0.0229
9,AGATACAG,-0.0448
10,ACTGGCAG,-0.162
11,GATCTCGA,-0.119
12,GCTCCTAA,-0.0203
13,AGGATCCC,-0.115
14,CCCTCGCA,-0.123
15,GGTCAAAC,-0.0028
16,GTCGGAAC,0.315
17,GCTCAGAA,-0.0656
18,GCAACTGA,-0.127
19,GGGATAAA,0.275
20,ACACGCAG,-0.18
21,CCTTTTGC,-0.0722
22,ACTTTAAG,0.0294
23,GCATCCGC,0.0699
24,ACGCCTGC,-0.0631
25,ATCGGCCC,0.326

row,Sequence,PBM E-score
1,AAACAGAA,-0.113
2,CCTCACTA,0.0894
3,TATTAGGA,-0.105
4,CTTCCAGA,-0.165
5,CTCATACA,-0.129
6,CGGCGTAA,0.343
7,AATTCCAA,-0.114
8,CGACTATA,0.131
9,AGCCCTAA,-0.0289
10,ACACACGA,-0.0115
11,CTATCCAC,-0.1
12,ACTGGATC,-0.0252
13,ATACTGCA,0.123
14,CAGATCAG,-0.172
15,CGCCACTC,0.125
16,AAAGCGCC,0.13
17,AGATAATA,0.0325
18,AAATGAAT,-0.173
19,CGTTCCTA,-0.0477
20,AGAGAAAT,-0.0908
21,AAACGTGG,-0.159
22,GAGGTGCA,-0.0404

# Source: the supplement of paper PMC3334620
